Experimental findings from paper PMC7819943, “Rice protein-binding microarrays: a tool to detect cis-acting elements near promoter regions in rice” are described below.

Some of the results follow.

In this experiment the target is T1, OsWOX13 (Oryza sativa, UniProt Q5QMM3 1-267).
T1 sequence: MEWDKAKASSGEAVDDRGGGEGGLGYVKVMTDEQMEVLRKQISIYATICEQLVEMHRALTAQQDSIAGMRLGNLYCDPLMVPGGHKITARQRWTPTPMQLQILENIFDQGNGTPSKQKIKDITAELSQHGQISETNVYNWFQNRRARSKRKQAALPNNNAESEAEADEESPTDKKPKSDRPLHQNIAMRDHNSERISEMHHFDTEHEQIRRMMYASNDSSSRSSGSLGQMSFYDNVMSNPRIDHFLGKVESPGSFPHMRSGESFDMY
Kind of experiment: protein-binding microarray (RPBM); PBS, 2% BSA, 51.3 ng/ul salmon testes DNA, 50 uM zinc acetate, 200 nM TF, 25 C, 1 h; high values mean tight binding. The settings on record: protein: recombinant; tags: N-terminal polyhistidine and DsRed monomer fusion (pET32a); label: CyDye5-dUTP incorporated in the synthesized complementary strand; 3' TTTTT single-stranded linker to array surface; dsDNA, one strand shown. In a few lines: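 Binding signal is defined as the fluorescence intensity of each feature in arbitrary units, read on an Axon 4000B scanner. Transcription factors with N-terminal polyhistidine and DsRed fusions came from E. coli BL21-CodonPlus and were purified on Ni–NTA. They were incubated at 200 nM for 1 h at 25 °C on a custom Agilent array that had been made double-stranded with Cy5-dUTP, with 50 µM zinc acetate present, and the array was washed.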
With “TTTATTAATGATCTAATCTCTAACTAAACTCCCTATCAATCGGAGTCACCTAGTGCAG”, the binding signal is 6590 fluorescence intensity (a.u.).
For the sequence “ATTGATTGCTTTACGAGTTATATATGTGCACCTGGAAGAACGGAGTCACCTAGTGCAG”, the binding signal is 40500 fluorescence intensity (a.u.).
Next, “TACCAGATTGGGGTGTGACAGTACTGCATTTACAATATCACGGAGTCACCTAGTGCAG”: 4820 fluorescence intensity (a.u.).
Take “GCTAATTTGACTCGGTTTTCATCTGACGTGGCATTGACGTCGGAGTCACCTAGTGCAG”: the binding signal was 35600 fluorescence intensity (a.u.).
Next, “ATTAGTCAAATTTTAAAATTTTAACCTTAAATTTAGAGCTCGGAGTCACCTAGTGCAG”: 8200 fluorescence intensity (a.u.).
With “TTTGTATAAATTTCGTGCAAATTTACAAATCAAGTCCGAACGGAGTCACCTAGTGCAG”, the binding signal is 7560 fluorescence intensity (a.u.).
For “TTTTCCTTGTGATTAATTCTTGGTAGCTTCTGCTCCTGCCCGGAGTCACCTAGTGCAG”, the binding signal is 4190 fluorescence intensity (a.u.).
Next, “TAGCACGGATTTCAATAATTATGCACGTGTGAAGGAGAGACGGAGTCACCTAGTGCAG”: 3930 fluorescence intensity (a.u.); “TTGTTGGGTGGGGACGTGGGGTGGGGTTCATGGAGTGGTTCGGAGTCACCTAGTGCAG”: 7370 fluorescence intensity (a.u.); “CGCCATGATTTTCGTTCATCCATAGCTTCTGCAGCGCCGGCGGAGTCACCTAGTGCAG”: 4730 fluorescence intensity (a.u.).
Under “GCTGTTAAATTGAGGGTCCTCCGGTGAACTTATTCCTAATCGGAGTCACCTAGTGCAG” stands 7550 fluorescence intensity (a.u.).
Next, “GTATTAATTTGGCCACCATAAACCCGGCGTTGAGAGCGACCGGAGTCACCTAGTGCAG”: 6070 fluorescence intensity (a.u.).
As to “ATTTACAAATAATATTATAAATTGAACCAAAATAATTACCCGGAGTCACCTAGTGCAG”, the binding signal is 5270 fluorescence intensity (a.u.).
Turning to “CCGTGATTTCCTGCCGGGATCAGACCGGGGCTTCTCTTCCCGGAGTCACCTAGTGCAG”, the binding signal is 8650 fluorescence intensity (a.u.).
Next, “AATTGATAACTAGGAATTTCAAAATGCAGGAATTTTGTGACGGAGTCACCTAGTGCAG”: 3260 fluorescence intensity (a.u.); “CAACATAATTCTAAATTTTGCAATAACTTTACAAAACTACCGGAGTCACCTAGTGCAG”: 4750 fluorescence intensity (a.u.).
Under “TTCGAAATTAGTAATTACCAAGTATTATTTTATTCTAAGACGGAGTCACCTAGTGCAG” stands 15600 fluorescence intensity (a.u.); under “AAACTAAATTTAGACAGGAGTTCAGGTGATGAGTCAATGGCGGAGTCACCTAGTGCAG”, 36800 fluorescence intensity (a.u.); under “ACATTGACACCAATCTTGAACATAATAGCGCATTACAGTACGGAGTCACCTAGTGCAG”, 7300 fluorescence intensity (a.u.).
Under “CTTTGGTTAATTGTCGTCTTCTTCTCTCTCTCTGCATCCACGGAGTCACCTAGTGCAG” stands 10200 fluorescence intensity (a.u.).
Turning to “ATAAATCAAAATTTAAACATGATAAGAGGTCATCAATAGACGGAGTCACCTAGTGCAG”, the binding signal was 4780 fluorescence intensity (a.u.).
Under “CTATAATTTATTTTATTTTATTATTAGTATAAATTTAATACGGAGTCACCTAGTGCAG” stands 5450 fluorescence intensity (a.u.).
Next, “TTCTAACTGCTCCTAATTGATTATGCAACTACACCATCTTCGGAGTCACCTAGTGCAG”: 40500 fluorescence intensity (a.u.).
